In all, about 33,000 sequences were measured (“E-score (-0.5 to 0.5)”: median about -0.035, highest 2% from about 0.35 on). The list shows a part of the results.
Each sequence was assayed against T1, Pdr3 (UniProt P33200) (assay: PBM E-score (8-mer binding enrichment) (E-score (-0.5 to 0.5)); higher = stronger / more preferred TF binding; most listed sequences are background and not binding sites). Details: protein concentration: 200 nM; construct: GST-full length.
T1 sequence: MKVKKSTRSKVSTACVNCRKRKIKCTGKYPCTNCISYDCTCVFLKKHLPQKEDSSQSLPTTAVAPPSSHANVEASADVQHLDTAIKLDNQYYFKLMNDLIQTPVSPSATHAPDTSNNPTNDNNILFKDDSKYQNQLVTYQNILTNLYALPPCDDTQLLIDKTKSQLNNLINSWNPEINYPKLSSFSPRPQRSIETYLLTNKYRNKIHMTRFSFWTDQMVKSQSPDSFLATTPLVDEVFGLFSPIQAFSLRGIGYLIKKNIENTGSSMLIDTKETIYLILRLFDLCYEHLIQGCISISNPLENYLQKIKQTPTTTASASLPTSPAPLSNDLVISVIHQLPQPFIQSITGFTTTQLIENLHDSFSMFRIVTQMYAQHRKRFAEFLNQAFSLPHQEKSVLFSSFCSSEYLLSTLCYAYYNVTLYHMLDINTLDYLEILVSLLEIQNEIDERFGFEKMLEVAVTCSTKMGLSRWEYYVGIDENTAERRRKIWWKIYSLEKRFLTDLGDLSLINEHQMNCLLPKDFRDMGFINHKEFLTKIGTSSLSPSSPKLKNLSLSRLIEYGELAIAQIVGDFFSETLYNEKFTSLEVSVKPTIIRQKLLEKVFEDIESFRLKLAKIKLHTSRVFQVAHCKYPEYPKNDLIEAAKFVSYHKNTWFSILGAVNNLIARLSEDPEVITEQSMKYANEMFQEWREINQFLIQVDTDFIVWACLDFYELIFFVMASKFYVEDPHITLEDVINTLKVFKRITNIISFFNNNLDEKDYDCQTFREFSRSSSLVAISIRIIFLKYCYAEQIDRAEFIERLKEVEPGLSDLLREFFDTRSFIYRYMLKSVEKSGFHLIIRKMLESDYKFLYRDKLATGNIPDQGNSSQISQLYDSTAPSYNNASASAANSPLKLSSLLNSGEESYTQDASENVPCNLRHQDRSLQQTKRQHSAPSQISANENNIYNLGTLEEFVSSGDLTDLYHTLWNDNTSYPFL
How it was run: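 Masliner-normalised scans of fluorescent anti-GST signal were the basis for scoring. That signal came from GST-tagged yeast transcription factors applied at about 100-200 nM to double-stranded universal all-10-mer Agilent arrays on fresh or once-stripped slides. Each ungapped eight-base word, pooled with its reverse complement, received an E-score from the Universal PBM Analysis Suite.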

| Sequence | PBM E-score |
| --- | --- |
| CCCTAAAC | -0.209 |
| CGCGAGCA | 0.0715 |
| ATAGAATG | -0.00651 |
| GTTTCTGA | 0.0828 |
| AGACTAAC | -0.193 |
| ACCGTAAC | -0.134 |
| AACCAGAT | 0.118 |
| CGGACCAA | 0.32 |
| GGGAGTTA | -0.0534 |
| CGGGTCTC | 0.23 |
| AGTGGTGG | -0.0762 |
| GAGCTGTA | -0.207 |
| CCCTGTTA | -0.104 |
| GGCGGCAC | 0.235 |
| CATGTGCG | 0.0377 |
| AAATAAAT | 0.0678 |
| CGTCACTC | 0.00988 |
| TCACGCAA | 0.00609 |
| AGGGGCTA | -0.133 |
| CGTGCCAA | -0.0687 |
| ATTCAACG | 0.174 |
| ATTGTAAA | 0.00411 |
| ACCTATAC | -0.22 |
| ATGGACTC | -0.0723 |
| TATAGATA | -0.135 |

| Sequence | PBM E-score |
| --- | --- |
| CTGGGTCA | -0.279 |
| AACCCTAG | -0.223 |
| TGTCGCAA | -0.0293 |
| GTCCGATA | 0.239 |
| CACGGACC | 0.378 |
| AAAACAGC | 0.0129 |
| CCCCGGTA | 0.122 |
| CACCCCCC | -0.276 |
| AGTATCCG | 0.318 |
| ATATCCGA | 0.346 |
| ACGGAGTC | 0.193 |
| ATTGTGGC | 0.0289 |
| AAACGACC | -0.0088 |
| AAACCTCA | 0.109 |
| CGTCCAGC | -0.227 |
| GCATGAGC | -0.042 |
| ACACAGGA | -0.108 |
| CCGTAGTC | 0.223 |
| GAATGAGC | -0.052 |
| GAGCTGGC | -0.0289 |
| GAGGACGC | -0.0118 |
| AAGGATCG | 0.0379 |
| CCCACAAG | -0.0425 |
| CAAGGAGC | -0.0806 |
| CATGACTA | -0.249 |

| Sequence | PBM E-score |
| --- | --- |
| AATTAATG | 0.0831 |
| ACCTATCC | 0.0536 |
| CACTTAGC | -0.152 |
| ACTTGTGG | -0.138 |
| AAATTTTC | 0.0282 |
| CCTGTTCA | -0.128 |
| CAAACTTC | 0.0413 |
| AGGTACTA | -0.118 |
| CCCTGGGC | -0.163 |
| CCGGGGCC | 0.367 |
| CCCCCCCC | -0.411 |
| TCGAGACA | -0.0963 |
| AAATGACA | -0.0615 |
| ATTCCTGA | -0.0913 |
| CTGCTACA | -0.0466 |
| CGCGGAGA | 0.415 |
| CCGTGTCA | 0.24 |
| TCGACTAA | -0.0665 |
| CTGTGAGC | -0.133 |
| ATCTCGAA | 0.0682 |
| ATTTCTGG | -0.103 |
| GGAGGATA | -0.0778 |
| ATAATAGC | -0.0254 |
| CAACGCAC | -0.0398 |
| CTAGTCTC | -0.269 |

| Sequence | PBM E-score |
| --- | --- |
| TACACGTA | -0.168 |
| AATGAGGT | -0.0918 |
| CCCTACAC | -0.102 |
| CGTCATCA | -0.0841 |
| ATTAATAA | 0.107 |
| ATCTCCGG | 0.4 |
| ATCCTATG | -0.141 |
| AACGAGCA | -0.201 |
| GCTCCAAA | -0.143 |
| AATAGTCA | 0.0148 |
| AGCAGGCC | -0.0657 |
| AACGTCTC | -0.214 |
| CTACGCTA | -0.236 |
| ATTTAAGG | -0.0784 |
| TGAGGGAA | -0.0248 |
| AATCATGG | -0.227 |
| CACTTCTA | -0.108 |
| CTGATCAC | -0.24 |
| AAGAACGA | 0.0198 |
| CATCGGGG | 0.0399 |
| AAAGGCTG | -0.156 |
| CGCACTTA | -0.0129 |
| TCGGTACA | 0.0197 |
| ACGTCAGG | -0.326 |
| AAAAGCCA | 0.153 |

| Sequence | PBM E-score |
| --- | --- |
| CCCGCAGG | 0.142 |
| TAGTACAA | -0.0113 |
| CCCGTGAG | 0.217 |
| CATGGTAC | -0.0651 |
| GGATGGGA | 0.221 |
| AGGTCCTA | -0.23 |
| GCTTGGTA | -0.168 |
| CAGATGCC | -0.167 |
| CCATTCAG | 0.0183 |
| GACGGGGA | 0.207 |
| CGCGGGCC | 0.379 |
| CGTGGAAC | 0.231 |
| ATTGTGGA | -0.245 |
| ACGTGAAC | -0.0534 |
| GCTTTGAA | -0.202 |
| TGATCCCA | 0.0245 |
| ATGTAGTC | -0.115 |
| CACTACAG | -0.127 |
| GGTAACCA | -0.162 |
| CGGAGTAC | 0.236 |
| TCTCTCCA | -0.0978 |
| TCCCAGAA | -0.145 |
| CCTTACTA | 0.029 |
| ACACTGTA | -0.232 |
| ATTATTTA | 0.146 |

| Sequence | PBM E-score |
| --- | --- |
| ATATTCGA | -0.0203 |
| ACGTGTAA | -0.14 |
| AAGCGCAG | 0.179 |
| CAAGGACC | -0.0936 |
| ATCCTCCC | 0.0485 |
| CATTACCA | 0.00813 |
| AGGCGGGG | 0.15 |
| CTCCGTTA | 0.216 |
| AATCAATC | 0.133 |
| GATGTTAA | -0.0551 |
| ACAGATAA | -0.0485 |
| AGCGTACC | -0.0568 |
| CCCGAATC | 0.298 |
| GTATGCGA | 0.0469 |
| TCGCCTCA | 0.0641 |
| CCTCCCCC | -0.23 |
| CATCGAGG | -0.0993 |
| AGTGCCCC | -0.24 |
| GTGCTCAA | 0.0359 |
| ACCCACTA | 0.146 |
| TAGGGTAA | 0.0439 |
| ACGTGAAA | -0.0344 |
| CGCCATTC | 0.228 |
| ATCATGAT | 0.0245 |
| ACGTCAAG | -0.311 |

| Sequence | PBM E-score |
| --- | --- |
| AAGGCACA | -0.143 |
| GGTCATAA | 0.00216 |
| CCGTGCAC | 0.0846 |
| AAATGCCA | -0.0841 |
| GGCGCGAC | 0.246 |
| AGAAAGTA | -0.167 |
| ATCGAGAT | -0.0696 |
| GCACTCCC | -0.0906 |
| CGCCTTGA | -0.0572 |
| TCGGTCAA | -0.0504 |
| CGTCGCTA | -0.0343 |
| AAAGACCG | -0.0526 |
| GAAACTGA | -0.149 |
| CCGACCTA | 0.0987 |
| AATTTAGC | -0.00469 |
| CACTACAA | 0.0182 |
| ACGCGACG | -0.0337 |
| AAAGTTCT | 0.098 |
| ACGGCGAT | 0.0347 |
| ACATAAGT | -0.099 |
| GATTAAGC | 0.17 |
| AAACTTCA | 0.0366 |
